Test results from PubChem BioAssay AID1468 (National Center for Advancing Translational Sciences (NCATS), 2008).
About 1,100 (0.39%) of roughly 280,000 compounds were called active. The inconclusive results got no clear call from the source; some entries with a clear call stand among them for comparison. Calls come from the whole dose curve; as a rule, active = well fitted inhibition curve with a large enough effect; inconclusive = small, poorly fitted or top-dose-only effect, or effect the other way; inactive = flat fitted curve, though single readings scatter. Where the call is inconclusive, the potency comes from a doubtful curve fit.

target: Microtubule-associated protein tau (Homo sapiens) (UniProt P10636); test: qHTS for Inhibitors of Tau Fibril Formation, Fluorescence Polarization; conditions: K18 P301L tau heparin fibrillization, Alexa594 FP, 6 h; series mostly up to 57.7 µM; note: nearly all actives have a fitted effect of over 55% in size
Chain of UniProt P10636 (P10636 whole entry, looked up, the tested form may be a part): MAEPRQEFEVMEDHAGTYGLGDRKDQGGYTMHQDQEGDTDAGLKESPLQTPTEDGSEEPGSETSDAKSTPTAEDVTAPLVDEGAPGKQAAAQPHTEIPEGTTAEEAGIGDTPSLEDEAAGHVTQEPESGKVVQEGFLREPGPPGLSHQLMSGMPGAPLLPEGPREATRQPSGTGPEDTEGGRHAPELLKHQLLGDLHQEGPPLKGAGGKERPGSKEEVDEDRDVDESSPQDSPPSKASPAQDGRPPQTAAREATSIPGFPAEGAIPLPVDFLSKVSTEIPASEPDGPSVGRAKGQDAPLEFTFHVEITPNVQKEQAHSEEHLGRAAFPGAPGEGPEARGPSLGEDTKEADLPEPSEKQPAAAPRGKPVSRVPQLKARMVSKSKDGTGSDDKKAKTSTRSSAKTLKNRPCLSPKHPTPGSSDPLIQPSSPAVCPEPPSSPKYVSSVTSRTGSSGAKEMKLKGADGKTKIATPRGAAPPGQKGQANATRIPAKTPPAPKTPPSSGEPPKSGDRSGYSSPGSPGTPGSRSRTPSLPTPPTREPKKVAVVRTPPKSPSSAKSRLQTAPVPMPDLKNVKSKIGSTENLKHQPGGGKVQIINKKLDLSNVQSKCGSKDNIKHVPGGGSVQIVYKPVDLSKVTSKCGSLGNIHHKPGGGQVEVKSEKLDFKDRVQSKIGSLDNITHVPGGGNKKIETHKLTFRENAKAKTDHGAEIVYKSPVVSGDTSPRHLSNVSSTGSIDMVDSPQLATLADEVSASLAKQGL
Outline: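 Human K18 P301L fragment (15 uM unlabeled plus 0.24 uM Alexa 594-labeled) in 100 mM sodium acetate pH 7 with compound, aggregation induced by 20 uM heparin for 6 hr at 37 C. ThT (30 uM) added for 1 hr, then Alexa 594 FP read.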
Potency is the fitted concentration of half-maximal effect; tags give direction and shape of the fitted curve.

Potency, inactive:
O=C(CSc1c2c(nc3ccccc13)CCC2)N1CCCC1
COC(=O)CSc1n[nH]c(=S)s1
COc1ccc(C)cc1NC(=O)c1ccc(CN2CCN(c3ccccc3)CC2)cc1
Cc1ccc(S(=O)(=O)C(CNS(=O)(=O)c2cc(F)ccc2F)c2cccs2)cc1 (stereo not drawn)
Cc1cc(NC(=O)Cc2ccccc2)cc(-c2nc3ccccc3o2)c1O
COc1ccc(C2C(=O)N(C3CCCCC3)CC(=O)N2Cc2ccco2)cc1 (stereo not drawn)
Cn1ncc(SCc2ccccc2)c(Cl)c1=O
Cc1cccc(NC(=O)CN2C(=O)C3(SCC(=O)N3c3ccccc3)c3ccccc32)c1 (stereo not drawn)
CCOC(=O)c1c(NC(=O)c2cc(=O)c3cc(C)ccc3o2)sc2c1CCCC2
CCOc1ccc(-n2c(C)nc(O)c2N=Nc2ccccc2)cc1
Cc1ccc2nc(C)cc(N3CCOCC3)c2c1
Cc1ccc2cc(C3CC(c4ccco4)=NN3S(C)(=O)=O)c(Cl)nc2c1 (stereo not drawn)
Clc1ccc(OCc2nc(-c3ccncc3)no2)c(Br)c1
CCN(CC)C(=O)[C@]1(c2ccccc2)C[C@@H]1CN
O=[N+]([O-])c1ccc(O)c(/C=N/Nc2ccccc2Cl)c1
CC1CCN(c2ccc(-c3cccc(NS(=O)(=O)c4ccc(F)cc4F)c3)nn2)CC1
O=C(Cn1c(=O)nc(-c2ccccc2)c2ccccc21)Nc1ccc(Cl)cc1F
Cc1cc2c(cc1S(=O)(=O)Nc1cc(C(F)(F)F)cc(C(F)(F)F)c1)OCC(=O)N2
CN(C(=O)c1ccc2c(c1)C(=O)N(CCC1=CCCCC1)C2=O)C1CCCCC1
Cc1[nH]c(=O)c(C#N)cc1-c1ccc2nccn2c1

Potency, inconclusive:
COc1cnc(SCc2c(Cl)cccc2Cl)nc1Cl 15.8 µM [inhibitor, partial curve, poor fit]
CCOc1c(Br)cc(CNc2ccc3c(c2)OCCO3)cc1OC 10 µM [activator, partial curve, poor fit]
Cn1c(NCc2ccccc2)nc2c1c(=O)n(Cc1ccccc1)c(=O)n2C 11.2 µM [activator, partial curve, poor fit]
O=C(COc1ccc(Cl)cc1Cl)NN1C(=O)/C(=C\c2ccc(Cl)cc2)SC1=S 1.78 µM [inhibitor, partial curve, poor fit]
O=C(O)c1ccccc1Sc1c([N+](=O)[O-])cc(C(F)(F)F)cc1[N+](=O)[O-] 28.2 µM [inhibitor, single point]
CC(/C=C/c1ccc(Cl)o1)=C\C(=O)O 11.2 µM [inhibitor, partial curve]
O=C(Nc1ccccc1)Nc1cccc(C(F)(F)F)c1 31.6 µM [inhibitor, partial curve]
CCCOc1ccc(-c2csc(N)n2)cc1[N+](=O)[O-] 14.1 µM [activator, partial curve, poor fit]
COCCn1c(=NC(=O)c2cc(Cl)sc2Cl)sc2cc(S(N)(=O)=O)ccc21 44.7 µM [inhibitor, single point]
Cc1ccc(C(=O)NCCSC2CCCCC2)cc1S(=O)(=O)Nc1ccccc1 20 µM [inhibitor, single point]
NNC(=O)c1ccc(Cl)cc1Cl 39.8 µM [inhibitor, single point]
Cc1c(C(=O)NCCN(C)C)oc2c1-c1nn(Cc3cccc(Cl)c3)cc1CC2 20 µM [inhibitor, single point]
COc1ccc(N2C(=O)C(Cl)=C(Nc3ccccc3O)C2=O)cc1 17.8 µM [inhibitor, partial curve, poor fit]
N#CC(C#N)=C1C(=O)N(CCN2CCCCC2)c2ccccc21 39.8 µM [inhibitor, single point]
C/C(CCN1CCCc2nc(C)c(C)cc21)=N\O[C@@H](C)CN1CCCc2nc(C)c(C)cc21 1.58 µM [inhibitor, single point]
COc1cc(/C=N/NC(=O)c2ccc(COc3cc(C)ccc3C(C)C)cc2)cc(OC)c1O 3.16 µM [activator, full curve]
Cc1ccc(NC2=C(Cl)C(=O)c3ccccc3C2=O)cc1 3.55 µM [inhibitor, partial curve]
COc1ccc(/C=C/C(=O)Nc2ccc(C34CC5CC(CC(O)(C5)C3)C4)cc2)cc1OC 28.2 µM [inhibitor, partial curve]
Cc1ccc(/C=C2\SC(=S)N(CCC(=O)NNC(=O)c3cccnc3)C2=O)cc1 6.31 µM [activator, full curve, poor fit]
CC(=O)c1cccc(NC(=O)CC2S/C(=N/N=C/c3cccs3)NC2=O)c1 (stereo not drawn) 39.8 µM [inhibitor, single point]
CCN(CC)c1ccc(N=Cc2ccc(N(CC)CC)cc2O)cc1 17.8 µM [inhibitor, partial curve]
O=C(NCc1nc2ccccc2[nH]1)C1=C[C@@H](c2ccc(Br)cc2)C[C@@H](OCc2ccc(CO)cc2)O1 35.5 µM [inhibitor, single point]
O=C(CC12CC3CC(CC(C3)C1)C2)N/N=C/c1ccc([N+](=O)[O-])o1 44.7 µM [activator, single point]
O=c1cc(-c2ccc3c(c2)OCCO3)oc2ccc(Cl)cc12 35.5 µM [inhibitor, partial curve]
O=C1NC(=Nc2ccccc2)S/C1=C\c1cccnc1 44.7 µM [inhibitor, single point]
CC1=CC(=O)C(C(C)C)=C/C1=N/OS(=O)(=O)c1ccccc1 10 µM [inhibitor, partial curve]
O=c1c(-c2ccccc2)coc2cc(O)cc(O)c12 31.6 µM [inhibitor, single point]
Cc1ccc(/C=N/NC(=O)CCCOc2ccc(Cl)cc2Cl)cc1 11.2 µM [inhibitor, partial curve]
CC(=O)N1CC=C2C(C#N)=C(N)C(C#N)(C#N)[C@H](c3ccoc3)[C@H]2C1 31.6 µM [inhibitor, partial curve]
Cc1ccc(-c2csc(NC(=O)CSc3nc(C)cc(=O)[nH]3)n2)cc1 25.1 µM [inhibitor, single point]
Cc1cc2[nH]c(=O)c(=O)[nH]c2cc1S(=O)(=O)N1CCN(c2cccc(Cl)c2)CC1 39.8 µM [inhibitor, single point]
O=C(CCSCc1ccc(Cl)cc1)NCc1cccs1 1 µM [inhibitor, single point]
CCSc1ncc(Cl)c(C(=O)Nc2cccc(Cl)c2)n1 12.6 µM [inhibitor, partial curve, poor fit]
Cc1ccc(NC(=O)c2ccc(NC(=O)CCS(=O)(=O)c3cccs3)cc2)cc1F 11.2 µM [inhibitor, partial curve, poor fit]
COc1cccc(Cn2cc(C(=O)c3ccc(Cl)cc3)c(=O)c3ccccc32)c1 39.8 µM [activator, single point]
CN1CC=C2C(C#N)=C(N)C(C#N)(C#N)C(c3ccsc3)C2C1 (stereo not drawn) 15.8 µM [inhibitor, partial curve]
COc1ccc(/C=N/NC(=O)Nc2cccc3nsnc23)cc1OC 10 µM [inhibitor, partial curve]
COc1cccc(CN(C)CC(=O)Nc2ccccc2C(=O)Nc2ccccc2)c1 20 µM [inhibitor, partial curve]
Cc1c(CNC(=O)c2cnn3c2NC(c2ccc(Br)cc2)CC3C(F)(F)F)cnn1C (stereo not drawn) 39.8 µM [activator, single point]
COc1ccc(N(C)S(=O)(=O)c2cccc(C(=O)Nc3ccc(-n4cnnn4)cc3)c2)cc1 14.1 µM [inhibitor, partial curve]
NC(=O)CSc1nnc(-c2cc(-c3cccs3)nc3ccccc23)o1 10 µM [inhibitor, partial curve]
COc1ccc(NC(=O)C2=C(C)Nc3nc(SCc4ccc(Cl)cc4)nn3C2c2cccc(OC)c2OC)cc1 (stereo not drawn) 10 µM [inhibitor, partial curve]
Cc1ccc(NC(=O)/C=C/c2ccccc2Cl)cc1Cl 10 µM [inhibitor, partial curve]
Cc1ccc(S(=O)(=O)N(C)CCCC(=O)n2nc(C)cc2C)cc1 4.47 µM [inhibitor, single point]
CCOc1cc(/C=C(/C#N)c2nc3ccccc3[nH]2)ccc1Oc1ccc([N+](=O)[O-])cn1 11.2 µM [inhibitor, partial curve]

Potency, active:
CCOc1c(Cl)cc(CNc2ccc(N3CCCC3)cc2)cc1OC 7.94 µM
N#Cc1c(-c2ccccc2)cc(-c2ccccc2)nc1SCC(O)CS(=O)(=O)Cc1ccc(Cl)cc1 (stereo not drawn) 14.1 µM
COc1ccc(NC(=O)C2CCN(S(=O)(=O)c3c(C)noc3/C=C/c3cccs3)CC2)cc1Cl 15.8 µM
